Source: a collection of fitness landscapes (doi:10.1126/science.1257360)
The list shows a part of the results.

B1: PhoQ; a variant is named by its letters at X, in order, P23837 (parent)
chain: MKKLLRLFFPLSLRVRFLLATAAVVLVLSLAYGMVALIGYSVSFDKTTFRLLRGESNLFYTLAKWENNKLHVELPENIDKQSPTMTLIYDENGQLLWAQRDVPWLMKMIQPDWLKSNGFHEIEADVNDTSLLLSGDHSIQQQLQEVREDDDDAEMTHSVAVNVYPATSRMPKLTIVVVDTIPVELKSSYMVWSWFIYVLSANLLLVIPLLWVAAWWSLRPIEALAKEVRELEEHNRELLNPATTRELTSLVRNLNRLLKSERERYDKYRTTLTDLTHSLKTPLXXLQXXLRSLRSEKMSVSDAEPVMLEQISRISQQIGYYLHRASMRGGTLLSRELHPVAPLLDNLTSALNKVYQRKGVNISLDISPEISFVGEQNDFVEVMGNVLDNACKYCLEFVEISARQTDEHLYIVVEDDGPGIPLSKREVIFDRGQRVDTLRPGQGVGLAVAREITEQYEGKIVAGESMLGGARMEVIFGRQHSAPKDE

Variants of: B1
Assay: enrichment ratio after two sorts for PhoP signalling (ratio (wild type AVST 3.29)); higher = more functional
Settings: with PhoP (E. coli)

Variant	enrichment ratio
NKWL	≤ 0.25
KVYH	≤ 0.25
GCFS	≤ 0.25
SHPQ	≤ 0.25
VAPR	≤ 0.25
DDFM	≤ 0.25
HTHN	≤ 0.25
DLWK	≤ 0.25
ISMM	5.78
QSFW	≤ 0.25
QVYG	0.25
AALH	7.76
VERL	≤ 0.25
QVNK	≤ 0.25
MEVM	12.9
WMNP	≤ 0.25
ADWF	≤ 0.25
DIWS	≤ 0.25
QQDY	≤ 0.25
THRT	≤ 0.25
AVTQ	4.9
LNPQ	≤ 0.25
KSRA	≤ 0.25
VDPH	≤ 0.25

Variant	enrichment ratio
INEI	≤ 0.25
QQVP	≤ 0.25
MSRK	≤ 0.25
KHVE	≤ 0.25
FENL	≤ 0.25
WGDR	≤ 0.25
MSHV	17.4
RNCG	≤ 0.25
VIIA	≤ 0.25
LKDI	≤ 0.25
KSIQ	≤ 0.25
EIDI	≤ 0.25
LMCH	≤ 0.25
TANC	12.1
KASY	≤ 0.25
KMAC	≤ 0.25
RDLP	≤ 0.25
KQNF	≤ 0.25
NNHM	≤ 0.25
RGRL	≤ 0.25
TFSR	≤ 0.25
DIPL	≤ 0.25
HPIW	≤ 0.25
LEGL	≤ 0.25

Variant	enrichment ratio
ICGF	≤ 0.25
LLMQ	≤ 0.25
LSLC	0.277
MQVS	≤ 0.25
AAPK	≤ 0.25
DTPP	≤ 0.25
WKKA	≤ 0.25
MVGL	3.39
FGSR	≤ 0.25
GKLL	9
AVQW	≤ 0.25
KTMS	≤ 0.25
EGFK	≤ 0.25
DAYR	≤ 0.25
VHAL	≤ 0.25
TPAD	≤ 0.25
WKLW	≤ 0.25
SMAC	12.5
TKVS	7.5
FNES	≤ 0.25
LKEC	≤ 0.25
PGES	≤ 0.25
FSQG	≤ 0.25
MRHY	≤ 0.25

Variant	enrichment ratio
PFTI	≤ 0.25
NPFG	≤ 0.25
HQGN	≤ 0.25
SGLS	10.8
FGMF	≤ 0.25
EHGH	≤ 0.25
HRPY	≤ 0.25
VKVR	≤ 0.25
DLVP	≤ 0.25
AGLA	4.99
DNET	≤ 0.25
IHRQ	≤ 0.25
KMNL	≤ 0.25
HAAL	≤ 0.25
WPSS	≤ 0.25
EHTP	≤ 0.25
IVNH	≤ 0.25
THDI	≤ 0.25
LSLE	2.83
AKSV	4.8
KDYD	≤ 0.25
DNAF	≤ 0.25
PFSM	0.353
ALYV	≤ 0.25

Variant	enrichment ratio
YKWK	≤ 0.25
EIQH	≤ 0.25
DNLH	≤ 0.25
NWPA	≤ 0.25
RHHF	≤ 0.25
SIVS	4.88
LEDF	≤ 0.25
YYNN	≤ 0.25
PIYG	≤ 0.25
NQYA	≤ 0.25
PICQ	≤ 0.25
NQQT	≤ 0.25
WMVR	≤ 0.25
VNFQ	≤ 0.25
APPT	≤ 0.25
RMLM	≤ 0.25
RMEF	≤ 0.25
QCCW	≤ 0.25
YWRL	≤ 0.25
VHKL	≤ 0.25
FMDR	≤ 0.25
GGKS	≤ 0.25
ARYN	≤ 0.25
SFLK	≤ 0.25

Variant	enrichment ratio
YELL	0.905
LMET	≤ 0.25
PNDW	≤ 0.25
QDRI	≤ 0.25
PRYW	≤ 0.25
AGLC	12.4
EELH	≤ 0.25
YHLP	≤ 0.25
PYAH	≤ 0.25
EAGE	≤ 0.25
AKHC	≤ 0.25
TDMC	3.92
QAIA	≤ 0.25
PHTT	≤ 0.25
REIK	≤ 0.25
RQYS	≤ 0.25
PYVN	≤ 0.25
LNKN	≤ 0.25
GVYK	≤ 0.25
NRFC	≤ 0.25
MRVD	≤ 0.25
YECI	0.32
WRAA	≤ 0.25
MMSK	≤ 0.25

Variant	enrichment ratio
AVPY	≤ 0.25
DVIL	≤ 0.25
KTGI	≤ 0.25
QTNP	≤ 0.25
GATF	≤ 0.25
IESF	≤ 0.25
LCWM	≤ 0.25
APNS	≤ 0.25
VTTS	≤ 0.25
IIQW	≤ 0.25
QDTT	≤ 0.25
VHYM	≤ 0.25
KHAF	≤ 0.25
SFMQ	1.15
ILKY	≤ 0.25
SSWA	≤ 0.25
TCEG	≤ 0.25
EQGI	≤ 0.25
MCQL	≤ 0.25
VMQI	≤ 0.25
NGLA	≤ 0.25
NRVC	≤ 0.25
EDDF	≤ 0.25
YSKS	≤ 0.25

Variant	enrichment ratio
DWGT	≤ 0.25
HQCS	≤ 0.25
RAMP	≤ 0.25
YSRA	≤ 0.25
VAMQ	≤ 0.25
IYDA	≤ 0.25
GTPL	≤ 0.25
KNYT	≤ 0.25
FGLH	6.84
LQCK	≤ 0.25
LTKQ	≤ 0.25
EARC	≤ 0.25
LQIS	≤ 0.25
GNIE	≤ 0.25
HCKL	2.13
NWWT	≤ 0.25
DTCI	≤ 0.25
TDDK	≤ 0.25
AEHY	≤ 0.25
PWRC	≤ 0.25
KMAI	≤ 0.25
TQFN	14.2
YLCN	0.42
DCFD	≤ 0.25

Variant	enrichment ratio
KVTI	≤ 0.25
HVLR	≤ 0.25
RHAR	≤ 0.25
DCYN	≤ 0.25
LFKN	≤ 0.25
LLLS	≤ 0.25
YPAT	≤ 0.25
RDCD	≤ 0.25
RNLA	≤ 0.25
PWWL	≤ 0.25
MHVC	≤ 0.25
ARHC	≤ 0.25
HRIF	≤ 0.25
HGGY	≤ 0.25
KTRW	≤ 0.25
TRLI	7.56
FSDA	≤ 0.25
RFNQ	≤ 0.25
LWQS	≤ 0.25
RTDK	≤ 0.25
SEEM	10.9
ECFV	≤ 0.25
FMMD	≤ 0.25
TGML	12.2

Variant	enrichment ratio
IWPM	≤ 0.25
KPYR	0.737
RTHL	≤ 0.25
APWS	≤ 0.25
RSSW	≤ 0.25
GMLA	≤ 0.25
YIHP	≤ 0.25
NELV	2.93
PTEQ	≤ 0.25
VIQI	≤ 0.25
ESPR	≤ 0.25
CFVL	≤ 0.25
PPLV	≤ 0.25
KLAI	≤ 0.25
FWGA	≤ 0.25
PPMP	≤ 0.25
MMVA	≤ 0.25
YMEK	≤ 0.25
MDFA	≤ 0.25
FNQQ	≤ 0.25
MSHE	≤ 0.25
GGGA	≤ 0.25
LIGI	≤ 0.25
RAMW	≤ 0.25

Variant	enrichment ratio
QSCH	≤ 0.25
YRHA	≤ 0.25
SDKW	≤ 0.25
QCIK	≤ 0.25
WMWK	≤ 0.25
WNDI	≤ 0.25
WKHA	≤ 0.25
VVPF	≤ 0.25
VYIF	≤ 0.25
YKRN	≤ 0.25
LHVN	≤ 0.25
IPKQ	≤ 0.25
TEYW	≤ 0.25
QQTW	≤ 0.25
EENY	≤ 0.25
NLVS	≤ 0.25
ADSL	≤ 0.25
LSVA	≤ 0.25
THTM	8.22
QLAA	≤ 0.25
FTSI	≤ 0.25
TMAE	6.39
HMLG	≤ 0.25
NHYI	≤ 0.25

Variant	enrichment ratio
IPQN	≤ 0.25
NYLD	≤ 0.25
ILNP	≤ 0.25
WYYN	≤ 0.25
HRIG	≤ 0.25
AADF	≤ 0.25
KSLV	≤ 0.25
YIMF	≤ 0.25
YDYQ	≤ 0.25
YDTN	≤ 0.25
HATK	≤ 0.25
MSEM	≤ 0.25
NHCA	≤ 0.25
HQCK	≤ 0.25
DWGD	≤ 0.25
THDR	≤ 0.25
FDHF	≤ 0.25
SGWW	≤ 0.25
ALLE	8.01
TMQS	14.3
NIWL	≤ 0.25
MQGD	≤ 0.25
QDFQ	≤ 0.25
HSYY	≤ 0.25

Variant	enrichment ratio
GPGF	≤ 0.25
WGGG	≤ 0.25
RQTE	≤ 0.25
PAIE	≤ 0.25
LYFN	≤ 0.25
IQTG	≤ 0.25
LDWV	≤ 0.25
FWYK	≤ 0.25
PPYY	≤ 0.25
VYSK	≤ 0.25
FYKA	≤ 0.25
NVYL	≤ 0.25
LNHS	≤ 0.25
TNYI	1.36
GRKD	≤ 0.25
DDVM	≤ 0.25
RHTS	≤ 0.25
PNPT	≤ 0.25
